Experimental data from the supplement of paper PMC10681739.
The full ranking holds about 4,000 sequences; the median of “arbitrary fluorescence units” is about 830, and the highest 2% start at about 6,500. The list lacks most of the strong results.

What follows are sequences tested against RUNX1 (UniProt Q01196) (assay: RUNX1 binding intensity (PBM fluorescence), RUNX1 alone (arbitrary fluorescence units); higher = stronger binding). Details: RUNX1 concentration 2 nM; ETS1 concentration 0 nM.
Method: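 gcPBM on 36-bp genomic-derived probes (partner site mutated) containing one RUNX1 site and no ETS1 site. Recombinant human RUNX1 (2 nM) was incubated alone or with ETS1 (25 nM) and detected by anti-RUNX1 antibody fluorescence. Values are medians over 4 replicate spots (not normalised). The probes sit in constant array flanks that are not printed.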
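Note: Full-length recombinant human RUNX1 bound to double-stranded DNA microarray spots, detected with an Alexa488-labelled secondary antibody after the anti-RUNX1 primary, read as scanned spot fluorescence.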

Sequence of UniProt Q01196 (Q01196 whole entry): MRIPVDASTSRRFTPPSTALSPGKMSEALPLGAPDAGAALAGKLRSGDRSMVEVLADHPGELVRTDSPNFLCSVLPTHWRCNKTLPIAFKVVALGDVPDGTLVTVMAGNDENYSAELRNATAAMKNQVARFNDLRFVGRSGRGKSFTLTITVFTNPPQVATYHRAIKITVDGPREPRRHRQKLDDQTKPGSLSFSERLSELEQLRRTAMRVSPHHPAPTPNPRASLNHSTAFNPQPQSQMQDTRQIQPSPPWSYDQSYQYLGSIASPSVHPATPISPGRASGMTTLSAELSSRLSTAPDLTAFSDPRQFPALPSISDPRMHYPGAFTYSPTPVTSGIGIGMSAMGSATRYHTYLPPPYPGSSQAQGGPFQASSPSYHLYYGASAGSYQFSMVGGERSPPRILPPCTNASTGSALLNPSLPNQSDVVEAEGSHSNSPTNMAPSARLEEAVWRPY

Row | Sequence | RUNX1 binding intensity
1 | CGGGCTCTCCAGCAAGGTGGCTGCGGCGACAAAATG | 744
2 | CACGGAGCAGCCTGGAACTCTGCGGCCTGTGATTAC | 825
3 | GACGCAGCCGCAGAGCGATTCGCGTCCCGGGAGCGG | 700
4 | CAGCCCCAGGCGGTTTAGTTTTTTAGGAGACCGAGA | 751
5 | CCACTCCAGGCAACTCCTCCAGGTGAGCCCACAACT | 962
6 | CAGGACGCTGTCGCCGCAGCTTCTTCAGGCTAGCTG | 725
7 | ATGACTCATTGCCTCACTCTCTACTCCCACAGAACC | 1280
8 | GAGTTGCTTACGGCCGTGTTGGTGGTCTGAATTGAG | 827
9 | CCAGAAACCACTTTCAGGTATGTGGAGAAGGAGGTC | 824
10 | ACAGCAAGTCAGCTGAGTACCGAGCAAGCCGCATGC | 657
11 | AGGGCAATTCCTTTGGGGCTGGTGGTCACGGACAAC | 739
12 | GCAGAGAGGAGGTGTGGGGGTGGAGGAGGCCGCAGA | 848
13 | CCGCGGTTCCTGCTGCAGAAAGAAAGCGCAAATTTC | 760
14 | AAAACGCGCAAATACGGAGGCTGCGGCCCGCGGGCA | 631
15 | CGGGAGATTCCAGATCCAGGATCTGCTGCGGGCCCG | 676
16 | CCCTTGCCAGAGGAATCCACTGCCACCGCAGAAGCA | 942
17 | GCATTGTGGTGGAAGACGCGCGCCGTATCTCTCAGG | 837
18 | GTGGCGCGGTGGGGCGCGGACCCGAAACTGCCAAGT | 706
19 | CCCCTAGTTCCCTTTTTGCTGGGCCGCAGTTTCGGT | 1090
20 | CTCCCCGCAGGGGGCCGCGCTTTATACACCCGGACC | 798
21 | AACAAACCACTCAATAGTGGCCAAACTACATGCTGG | 803
22 | GTCACCTGTGGCTTTTGGGGTGGGGGAGCAAGAAGA | 823
23 | CACTTGTCCTGCCTGGCCTGCGGCCGCCACCACTTC | 1190
24 | GCCGGCCGCAAAGCAGCTCCGCCCCTTGCTCTTCCA | 1110
25 | GGCTAAAGTGGTTGGGGGTTGGAGCCGGCGCGTGAC | 859
26 | TCTCTTTGGTGGTTTCTTCTTTATCTTCATGGCTAG | 2370
27 | AGGCTTTGCTGCCACAAACTTTCGTGCCACGAACCT | 779

Row | Sequence | RUNX1 binding intensity
28 | CCTCCTTGCTCCCTGAGGGGGAGGTGGTTTTTGAGT | 856
29 | ACCTCCACCACAAAGAACAAAAAACGAAGGATAAAA | 1520
30 | GGACTGCCTGAACTGGGAGGTCACCGACCACAACCT | 866
31 | ACTTAGACGCCGCAACCCCAGGTCCGCGCTTGCTGC | 800
32 | ACCTTGCGGGGGCAGTGGGTGGGTGTCACCTCCTCC | 934
33 | GTCTTAGGTTGGAAGTCTGTGGTCCCTGTTCACATG | 774
34 | GATTCATGTCCTCCTCTATGCAACCACAGCATCTTC | 1410
35 | AGGGTGTTAGGGCCACAAGGGCAGCAAGACCAAGTG | 742
36 | AGTGCTGGGCTGTGGGCCGGGGAGCAAGGCGGCTCG | 762
37 | TTCTGTGGGGACAATTAGGGTTTCTGGGTTTTCTGA | 865
38 | CTGCGGTCGGGGCGAGGGAGCTGCCGGGGAGGTGAG | 1060
39 | GCCTCCTCAGGCAATTGCCCAAAATAGCCACATGTC | 1060
40 | TCTGGGCTGTGGTTACAAGCAGCAAGTGGCCATGGC | 1540
41 | AGCAAGGCCTGCGGGGAGGCGCAGCATGGACGCGTT | 659
42 | GAGTCGCTTCAGCTCCCGCCCCGCTCTGTGGCGTAG | 698
43 | AGTGCTTTGCGGTATAATACTGCACATGCTGTGTTG | 3870
44 | GCCCCGAAAGTGGCCCGGCTGTTGGCCGCAGCGGGA | 734
45 | CTCTGAGCAGCAAGTGACAAAACCACGCAGGGCAGG | 694
46 | AGTAACCCGCAGGCTGTGCCGGCAGCATGTTGTCTT | 1210
47 | GTGGACTGGAGCCACAAGGGAGGCAGCAAGGAAGGT | 739
48 | AGCACCACATTCTACACCTCCACCTCATGCTGCGTC | 1180
49 | GGGGCTTGCTGCCGCAGAGCCGCCTTCGGCCCTCCC | 743
50 | GAAACCTCAGGCACGGCCGGGCCACCATGAAAACAC | 806
51 | CCATAGCCTAACCTCAAGCACCTCAGGCAGTTCTTT | 1160
52 | CTCTCTTTACTGTTGAGTAATCGCGGTCTCTGCTCC | 988
53 | GAGACTGCGGCCTCAGTGGTGCTGAAGATGGAGAGG | 695
54 | TACGACTTCAAGGCGGTCAACATCCAGGGCAAACTG | 730

Row | Sequence | RUNX1 binding intensity
55 | TCTTGGTGGTACTGCTGCACAGCAGCAAGTGGAAAC | 764
56 | GTGAGAGGAGGTGGGCGCTGGTTTAATGTGGTCAGC | 786
57 | CCCTCTGCGGGACGAAGAAGGGGGACGTGCTGCTGG | 777
58 | GAGGTGCCTGAAGCCAGTAGGTGGTTTTGGGTGCTA | 662
59 | GTGTAACGCCCGTATGCATATCTATTTGCGGCCACC | 768
60 | AGATTTATGTGGTAAATGGTTTCAGGGAACTGGTTC | 1010
61 | GGCCTTTTCTTCGGCCCTCACAGCCACCGCGACCCA | 1050
62 | AGCAAAACCAAAAAAAAAAAAAAAAAGAGGAGATAA | 854
63 | CTTGCGCCGTACGGGTACCTGCGGGCGGGGTGTACC | 802
64 | TACGTCACTTTCGGGCCGCCGTCCTGCGGGCAAGGG | 774
65 | CAGTTCCAGGGAGCAGCCCCAAGCTTGTGGCCCTGA | 686
66 | GCCTCCTCCCATCTCCTCCATGTGGTCAATCCAGTT | 2110
67 | GCACAGGCCGTAAGGAAAAGGGTTGTGGGGCTCATT | 726
68 | ATATATCACCCCTGCCTTGCAAAACCACAAGACCAA | 4850
69 | AAGCCAGGATACCGCAGCCCTGCAGGGTGTGACTCA | 2150
70 | GGGAGCGCGGTCGCAGCTCCCACTGCCGCCCTCTGG | 734
71 | CTTTCTGGTTACCTTCCTTTTTGGTTTTGGTTTCAT | 1410
72 | GGACCGGGAGTTAAGGCGTTCGCGGCGTGTGGTAAG | 678
73 | GCCTCTGTGGGCTGATGAAGGACAGACAGAAAGCCA | 800
74 | CGTCCAGCCGCAAGGGAGAGCAGATTCCTCCAGTGC | 848
75 | GAGGAGGTGGTTGCTATAACCCCAAGGGGGAATCGC | 736
76 | CATGCCTACCCGCGGGCCCTCTCAGCTGCCGTACAC | 1160
77 | AGCTCCATGAAGAGGGCCTGAAAACCAAACGGGGGA | 842
78 | GGCTGATGGGGAGAAGAGAGTGGCTGTGGTCTCTGG | 746
79 | ATAGACGACCACAGCCTGTGCACCCTCAGGCAGTAA | 1010
80 | CACCTCAGCTTCATGTGTAGCTGGGACCACAGGCAT | 759
